PubChem BioAssay AID686978 (National Center for Advancing Translational Sciences (NCATS), 2013)
The whole screen tested about 420,000 compounds, of which about 64,000 (15%) were called active. The shares of active, inactive and inconclusive entries below differ from those in the screen. Calls come from the whole dose curve; as a rule, active = well fitted inhibition curve with a large enough effect; inconclusive = small, poorly fitted or top-dose-only effect; inactive = flat fitted curve, though single readings scatter. Potencies of inconclusive entries are left out as doubtful fits.

Assay: qHTS for Inhibitors of human tyrosyl-DNA phosphodiesterase 1 (TDP1): qHTS in cells in absence of CPT; note: nearly all actives have a fitted effect of over 55% in size
Conditions: DT40 Tdp1-/- hTDP1 cells, no CPT, ATP luminescence, 48 h; activity change, negative = growth inhibition: at 46.2 µM (top of the series)
In short: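 Luminescent ATP content (CellTiter-Glo) served as the growth readout. Knockout chicken DT40 cells expressing human TDP1 were exposed to compounds without camptothecin for a minimum 48 hr at 37 °C.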
% is set by controls: 0 for no effect and ±100 for the full control effect; potency is the fitted concentration of half-maximal effect; tags give direction and shape of the fitted curve.

| SMILES | Potency | activity change, negative = growth inhibition |
| --- | --- | --- |
| O=C(COc1ccc(/C=N/NC(=O)CSCc2ccc([N+](=O)[O-])cc2)cc1)NCc1ccco1 | inconclusive [inhibitor, single point] | – |
| Cc1ccnc(SCCn2c(N3CC(C)CC(C)C3)nc3c2c(=O)n(C)c(=O)n3C)n1 (centres undefined) | inactive | – |
| CCSC1=NC2(CCN(C(=O)NC3CCCCC3)CC2)N=C1c1ccc(C)c(C)c1 | inactive | – |
| COc1ccc(OC)c(NC(=O)CCc2c(C)nc3c(-c4ccccc4)c(C)nn3c2C)c1 | active: 20.6 µM | – |
| OCCNc1nc2ccccc2n1CC(O)c1ccccc1 (centres undefined) | inconclusive [inhibitor, single point] | – |
| O=C(N/N=C/C1C(c2ccccc2)C1(Cl)Cl)c1cccc(Cl)c1 (centres undefined) | inconclusive [inhibitor, single point] | – |
| CCCN(CCC)CCNC(=O)c1cc(Sc2ccc(Cl)cc2)nc2ccccc12 | active: 18.4 µM | – |
| O=C1CSc2ccc(C(=O)N3CCCCC3)cc2N1 | inconclusive [inhibitor, single point] | – |
| S=C(Nc1ccccc1Cl)N(Cc1ccccc1)Cc1ccccn1 | inconclusive [inhibitor, single point] | – |
| COc1ccc(C2(c3ccc(OC)cc3)NC(=O)N(CC(=O)NC(C)C)C2=O)cc1 | inactive | – |
| COc1ccc(/C=C2\SC(=N)N(c3nccs3)C2=O)cc1OC | active: 5.8 µM | – |
| Fc1ccc(-c2nc3ccc(Cl)cn3c2Cc2cccc(F)c2)cc1 | active: 23.1 µM | – |
| COc1cccc(C(C(=O)NC(C)(C)C)N(CCC(C)C)C(=O)CCC(=O)Nc2cc(C)on2)c1OC (centres undefined) | inconclusive [inhibitor, single point] | – |
| Cc1ccc(NC(=O)C2CC(Cl)=CCC2C(=O)O)c([N+](=O)[O-])c1 (centres undefined) | inconclusive [inhibitor, single point] | – |
| NC(CSCc1ccccc1)C(=O)Nc1ccc([N+](=O)[O-])cc1 (centres undefined) | inconclusive [inhibitor, partial curve] | – |
| CC(C)C1NC2(C(=O)c3ccccc3C2=O)C2C(=O)N(c3ccc(F)cc3)C(=O)C12 (centres undefined) | active: 25.9 µM | – |
| CCCCN(C(=O)CCC(=O)Nc1cc(C)on1)C(C(=O)NC1CCCC1)c1ccccc1OCC (centres undefined) | inconclusive [inhibitor, single point] | – |
| CN(C)c1ncnc2ccc(-c3ccccc3C(F)(F)F)cc12 | inconclusive [inhibitor, single point] | – |
| O=C(OCc1ccccc1F)c1cc(S(=O)(=O)N2CCCCC2)ccc1N1CCOCC1 | inconclusive [inhibitor, single point] | – |
| Cc1cccc(CSCCNC(=O)CN(c2ccccc2)S(=O)(=O)N(C)C)c1 | active: 20.6 µM | – |
| COc1ccccc1C1CN(Cc2ccc(Sc3nncn3C)o2)Cc2ccccc2O1 (centres undefined) | active: 16.4 µM | – |
| O=C(COC(=O)C1(c2ccc(F)cc2)CCCC1)N1CCc2ccccc21 | inconclusive [inhibitor, single point] | – |
| O=C(COc1ccc2c(-c3ccccc3)cc(=O)oc2c1)NCCCn1ccnc1 | inconclusive [inhibitor, single point] | – |
| Cc1ccc(S(=O)(=O)c2cn(CC(=O)Nc3ccc4c(c3)OCO4)c3ccc(F)cc3c2=O)cc1 | inactive | – |
| CCOC(=O)CNC(=O)CSc1ccc2nnc(-c3ccc(F)cc3)n2n1 | inactive | – |

| SMILES | Potency | activity change, negative = growth inhibition |
| --- | --- | --- |
| COc1ccc(CNC(=O)CN2CCN(C(c3ccccc3)c3ccccc3)CC2)cc1 | inconclusive [inhibitor, single point] | – |
| O=S(=O)(Cc1ccc(Cl)cc1)NCc1cccnc1 | inactive | – |
| CCOC(=O)c1ccc(NC(=O)COc2ccc(S(=O)(=O)N3CCCC3)cc2)cc1 | inconclusive [inhibitor, single point] | – |
| S=C(Nc1ccc(Oc2ccccc2)cc1)N1CCOCC1 | inactive | – |
| O=C(NNC(=S)Nc1ccccc1Cl)C1CC1 | inactive | – |
| CCOc1ccc2c(c1)C(N(CCN1CCOCC1)C(=S)Nc1ccccc1OC)CC(C)(C)O2 (centres undefined) | inconclusive [inhibitor, single point] | – |
| Cc1ccc(S(=O)(=O)N2[C@@H](c3ccccc3F)C(C(=O)O)=CC[C@H]2c2ccc(Cl)c(Cl)c2)cc1 | inconclusive [inhibitor, single point] | – |
| COc1ccccc1-c1cc(C(=O)NC2CCCC2)no1 | inconclusive [inhibitor, single point] | – |
| O=C(Nc1ccccc1NS(=O)(=O)c1ccc(F)cc1)C1CCC1 | – | inconclusive: -4.17% [inhibitor] |
| Cc1ccc(C(=O)O)cc1NCc1ccncc1 | inactive | – |
| Cc1cccc(Nc2nc3ccccc3n3c(N)nnc23)c1 | inactive | – |
| COc1ccc(C(=O)NCCCCc2ccccc2)cc1 | inactive | – |
| O=C(NCCCN1CCOCC1)c1ccc2c(c1)N(Cc1ccccc1)CCS2 | active: 23.1 µM | – |
| CCc1c(C)nc2cc(-c3ccccc3)[nH]n2c1=O | active: 11.6 µM | – |
| CCCC(C(=O)O)N1C(=O)/C(=C/c2cccn2C)SC1=S (centres undefined) | inactive | – |
| COc1ccc2[nH]c(=O)c(CNc3ccccc3)cc2c1 | inconclusive [inhibitor, partial curve] | – |
| CC(C)n1c(SCc2cc(=O)[nH]c3ccccc23)nc2c1c(=O)n(C)c(=O)n2C | inconclusive [inhibitor, single point] | – |
| CSc1nccc(N2CCN(c3ccc(F)cc3)CC2)n1 | inconclusive [inhibitor, single point] | – |
| Cc1cc(NC(=O)CCC(=O)N(CC(=O)NC2CCCC2)c2ccc(F)cc2)no1 | inactive | – |
| CCCN(CC1CCCO1)C(=O)CCc1nnc(CCc2ccc(OC)cc2)o1 (centres undefined) | inconclusive [inhibitor, single point] | – |
| Cc1ccc(NC(=O)CN(C)C(=O)c2cccnc2Nc2cccc(C(F)(F)F)c2)cc1 | inconclusive [inhibitor, single point] | – |
| CN(Cc1ccc(F)cc1)C(=O)c1ccc(NS(=O)(=O)c2ccccc2)cc1 | inconclusive [inhibitor, single point] | – |
| COCCN1C[C@@H](CO)O[C@@H](n2cnc3c(N(C)C(C)C)ncnc32)C1 | inactive | – |
| Cc1cc2n(n1)CCCN2C(=O)Nc1cccc(C)c1C | inactive | – |
| O=c1cc(CSc2nnc(-c3ccco3)o2)c2ccccc2[nH]1 | inactive | – |

| SMILES | Potency | activity change, negative = growth inhibition |
| --- | --- | --- |
| COc1ccc(C(=O)C=Cc2ccc3c(c2)OCO3)cc1OC | inconclusive [inhibitor, single point] | – |
| c1ccc(Nc2nc(-c3ccccc3)ns2)cc1 | inactive | – |
| O=C(Nc1ccccc1C(=O)N1CCCCCC1)c1ccc(Cl)cc1 | inactive | – |
| COc1ccc(C2=NN(C(=O)CCC(=O)O)C(c3ccc(F)cc3)C2)cc1 (centres undefined) | inactive | – |
| O=C(CSc1ccc(-c2ccc3c(c2)OCO3)nn1)Nc1nccs1 | – | inconclusive: -32.8% [inhibitor] |
| Nc1ncnc2c1ncn2C1OC(CO)C(O)C1N (centres undefined) | inconclusive [inhibitor, single point] | – |
| COc1ccc(CN2CCN(Cc3cccc(Oc4ccccc4)c3)CC2)c(OC)c1OC | inconclusive [inhibitor, single point] | – |
| CCCCCNC(=O)c1ccc2c(=O)n(CC3CCCO3)c(=S)[nH]c2c1 (centres undefined) | inconclusive [inhibitor, full curve, poor fit] | – |
| CC(=O)c1ccccc1C(=O)N1CCCC(C(=O)c2ccc(C(F)(F)F)cc2)C1 (centres undefined) | active: 23.1 µM | – |
| NC(=O)Cn1c(=O)n(CCCC(=O)NC2CCN(Cc3ccccc3)CC2)c(=O)c2ccccc21 | – | inconclusive: -34.9% [inhibitor] |
| COc1ccc(-c2nc(SC(C)C(=O)Nc3ccc(NC(C)=O)cc3)n[nH]2)cc1 (centres undefined) | inactive | – |
| COc1cc(C(=O)OC2CC3CCC2(C)C3(C)C)ccc1OC(C)=O (centres undefined) | inconclusive [inhibitor, single point] | – |
| Cc1occc1C(=O)NNC(=S)Nc1ccccc1 | inactive | – |
| Cc1ccc(-c2noc(CSc3nnc(Cc4ccccc4)n3-c3ccc(Cl)cc3)n2)cc1 | inactive | – |
| COc1cccc(N2CCN(c3ncc4c(n3)CCN(Cc3ccc(Br)cc3)C4)CC2)c1 | active: 9.2 µM | – |
| CC1CCN(S(=O)(=O)c2ccc3c4c2CC(=O)N4CC(C)S3)CC1 (centres undefined) | inconclusive [inhibitor, single point] | – |
| CCN1/C(=C/c2ccc3ccccc3[n+]2CCCS(=O)(=O)[O-])C=Cc2cc(C)ccc21 | inconclusive [inhibitor, partial curve] | – |
| COC(=O)N/N=C/c1cc([N+](=O)[O-])cc(Br)c1O | – | inconclusive: -30.7% [inhibitor] |
| COCOc1cccc(CN2CCC2(C)C(=O)NCCNC(C)=O)c1 (centres undefined) | inactive | – |
| CCCCc1c(C)nc2ccc(C(=O)OCC)cc2c1Cl | inconclusive [inhibitor, single point] | – |
| O=C(/C=C/c1ccc(F)cc1)NC(=S)N1CCOCC1 | inconclusive [inhibitor, single point] | – |
| Cc1cccc(N2N=C(C(=O)Nc3ccc(Cl)c(S(=O)(=O)N4CCOCC4)c3)CCC2=O)c1 | inconclusive [inhibitor, single point] | – |
| NS(=O)(=O)c1cc(C(=O)OCC(=O)Nc2ccc(N3CCCCC3)cc2)ccc1Cl | inactive | – |
| CCCCNS(=O)(=O)c1ccc(NC(=O)C2CCCO2)cc1 (centres undefined) | inconclusive [inhibitor, partial curve, poor fit] | – |
